In the BET-seq Pho4 binding data (Le et al. 2018):
The list shows a part of the results. The energies were worked out here from pooled read counts, against the library average; single values are noisy.

Molecular target: T1, Pho4 (S. cerevisiae) (UniProt P07270)
T1 sequence: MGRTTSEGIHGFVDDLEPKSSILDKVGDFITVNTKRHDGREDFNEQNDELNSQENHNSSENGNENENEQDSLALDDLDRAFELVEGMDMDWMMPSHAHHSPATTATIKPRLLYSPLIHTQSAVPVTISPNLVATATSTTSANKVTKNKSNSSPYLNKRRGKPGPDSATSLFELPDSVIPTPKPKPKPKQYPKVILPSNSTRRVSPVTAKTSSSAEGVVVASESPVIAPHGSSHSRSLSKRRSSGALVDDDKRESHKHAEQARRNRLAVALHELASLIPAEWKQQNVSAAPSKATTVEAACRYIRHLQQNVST
Assay: relative binding free energy (BET-seq); higher = weaker binding
Conditions: reference: library average

Row | Sequence | relative binding free energy [kcal/mol]
1 | GTTGTCACGTGATGGC | 0.39
2 | TGTGTCACGTGAGAGT | 0.21
3 | ATTCGCACGTGGGCGT | -0.07
4 | TGCATCACGTGTTGGC | 0.29
5 | GTGCACACGTGGGGGA | -0.11
6 | TTCTTCACGTGGATGT | 0.23
7 | AAGATCACGTGTAAGG | 0.22
8 | TGCATCACGTGTTATG | 0.01
9 | AGTCGCACGTGTGTGG | 0.02
10 | CTAGTCACGTGGTCGT | -0.06
11 | TGTGTCACGTGGTAAA | 0.06
12 | CGGATCACGTGGCAGG | 0.17
13 | TGGATCACGTGGATGG | 0.23
14 | ATGTGCACGTGAACGG | 0.03
15 | TTGTGCACGTGGCCCG | -0.11
16 | TCAAACACGTGTGGGG | 0.09
17 | AAAGTCACGTGGGGCT | -0.03
18 | TGAGGCACGTGGTCGT | -0.17
19 | GATTTCACGTGGGAAG | 0.26
20 | TTTGACACGTGGATCT | -0.08
21 | GGGAGCACGTGATGTT | 0.2
22 | GCAAGCACGTGTTGGT | -0.12
23 | GGCGTCACGTGAGGTA | 0.34
24 | CGCGACACGTGTTTGG | 0.09
25 | GTAATCACGTGGGCTC | 0.28

Row | Sequence | relative binding free energy [kcal/mol]
26 | TTCATCACGTGCTTTT | 0.22
27 | GAAGCCACGTGTGTGT | -0.07
28 | TGTCACACGTGAGTGA | 0.28
29 | GTTGGCACGTGTCAAG | -0.1
30 | TTCATCACGTGCCGTT | 0.28
31 | AAAATCACGTGGGGTG | 0.09
32 | CGTGCCACGTGTTTTG | -0.05
33 | ATCGTCACGTGGGAAG | 0.02
34 | TAGGTCACGTGGCCTG | -0.1
35 | TGAGCCACGTGGGGCG | -0.17
36 | TGGAGCACGTGAAAAG | 0.2
37 | GTATACACGTGAAGTT | 0.27
38 | AAGTGCACGTGAGGTA | 0.14
39 | AGAAGCACGTGAAGAG | 0.41
40 | GGGGGCACGTGCTGCG | -0.09
41 | ATATTCACGTGGTGAA | 0.15
42 | GTCATCACGTGTTTGT | 0.15
43 | GGTGACACGTGAAAGG | 0.33
44 | TTTGGCACGTGTTCGA | -0.25
45 | AAGTTCACGTGTGATA | 0.17
46 | TAAGACACGTGTTGGG | 0.01
47 | AAAATCACGTGCGTGT | 0.23
48 | CAGGTCACGTGCTGGG | 0.07
49 | CATGGCACGTGCGGGT | -0.34
50 | TGGTTCACGTGCTAGG | 0.13

Row | Sequence | relative binding free energy [kcal/mol]
51 | CTGGTCACGTGATGTG | 0.14
52 | AGCAGCACGTGAATGT | 0.32
53 | ATGGGCACGTGCGCGG | -0.27
54 | TATTTCACGTGTGAAT | 0.32
55 | CAGGCCACGTGGGGTG | -0.32
56 | TTTGTCACGTGTCGTA | 0.1
57 | CGAAGCACGTGTATGG | 0
58 | ATTAGCACGTGGCTGG | -0.09
59 | TGCTGCACGTGGTTTT | -0.06
60 | GACTGCACGTGGAGGT | 0.1
61 | TCAGTCACGTGGGGAT | -0.03
62 | ATTGGCACGTGTCATA | -0.17
63 | TGTAACACGTGATACG | 0.25
64 | AGAGGCACGTGTGTAG | -0.11
65 | GTGGCCACGTGTGTGA | 0.05
66 | AAGGACACGTGTTATT | 0.04
67 | AGGAGCACGTGTTGTA | 0.05
68 | AGTTACACGTGTAGCG | 0.1
69 | TGGATCACGTGCGTAG | 0.06
70 | TTGCGCACGTGTAGTA | -0.08
71 | AGTCGCACGTGAGAGT | 0.16
72 | TGTGGCACGTGCGGCT | -0.1
73 | TCATGCACGTGTTATT | -0.02
74 | TAAGTCACGTGCATTG | 0.09
75 | ATTCGCACGTGGGGGG | -0.17

Row | Sequence | relative binding free energy [kcal/mol]
76 | CGTGGCACGTGGTTCA | -0.11
77 | AGACTCACGTGGGCTG | 0.24
78 | GGAGGCACGTGGGGAC | -0.21
79 | TTAATCACGTGGCGTT | -0.01
80 | TTGAACACGTGGGAAG | -0.08
81 | GATAACACGTGGGGAG | -0.02
82 | ATTCGCACGTGGGGCG | -0.24
83 | GGATTCACGTGAAGGG | 0.37
84 | CTGGGCACGTGGCTTT | -0.26
85 | AGTAGCACGTGCCGGT | -0.11
86 | GGTGACACGTGTGTCT | 0.04
87 | TGTGACACGTGGAGCT | -0.06
88 | TTTACCACGTGTGGGC | 0.05
89 | ATGGGCACGTGACGGA | -0.14
90 | TCGTTCACGTGGAGTT | 0.23
91 | TTGAACACGTGGTTAG | 0.11
92 | ATTTGCACGTGCTGGG | -0.02
93 | TGCGGCACGTGTGGAA | -0.01
94 | TTTGTCACGTGAGAGC | 0.38
95 | CGTTTCACGTGATTAG | 0.33
96 | TTTAACACGTGACTTT | 0.13
97 | TAGGACACGTGGGTGA | -0.09
98 | GGGTGCACGTGCATGT | 0
99 | TCTTACACGTGTAAGT | 0.24
100 | GTATACACGTGCAGGG | -0.06

Row | Sequence | relative binding free energy [kcal/mol]
101 | GAGTTCACGTGGAAGT | 0.38
102 | GTTGGCACGTGTCGAA | 0.05
103 | GCGTCCACGTGTTGTT | 0.1
104 | TCTAACACGTGGGTAG | -0.09
105 | GCTGTCACGTGTGGCG | 0.18
106 | GGGGTCACGTGTTAAG | 0.18
107 | ATAAGCACGTGGTCGT | -0.28
108 | CTGTGCACGTGGAATT | 0.06
109 | GTGAGCACGTGGGTTG | -0.16
110 | TCATTCACGTGTATGT | 0.12
111 | TGAAACACGTGGTCTT | 0.09
112 | AGGCTCACGTGCAGGG | 0.21
113 | AGGTTCACGTGTCATG | 0.24
114 | TTTATCACGTGCTTAT | -0.08
115 | TTGTACACGTGTTTAA | -0.08
116 | TATATCACGTGCTGAT | 0.09
117 | AAGTTCACGTGGGTCA | -0.02
118 | TCGTACACGTGTTAGT | 0.07
119 | TGAGGCACGTGGCAGT | -0.3
120 | TGCGTCACGTGTAATT | 0.21
121 | CTCTGCACGTGTGTTT | 0.04
122 | GATGTCACGTGGTGTG | 0.07
123 | TTGTGCACGTGGTGCG | -0.07
124 | GGGAGCACGTGGGGAA | -0.07
125 | CTAGGCACGTGGTAAT | -0.17

Row | Sequence | relative binding free energy [kcal/mol]
126 | ATTGGCACGTGGTCTG | -0.22
127 | CTGTACACGTGGTCGG | -0.05
128 | GTCGACACGTGTATGT | 0.08
129 | CTTGGCACGTGTCGTG | -0.04
130 | TGTGTCACGTGCTTAG | 0.04
131 | AGAGGCACGTGGCGTA | -0.16
132 | TGTTTCACGTGCGCTG | 0.23
133 | TTAATCACGTGCATGT | 0.05
134 | ATTGTCACGTGTGCAG | 0
135 | GTTTTCACGTGGTTAC | 0.36
136 | AAGTACACGTGGTTGT | -0.02
137 | TGGTGCACGTGGATAT | -0.03
138 | TGCTTCACGTGTTTGC | 0.24
139 | TGGGACACGTGGGTGA | -0.07
140 | TGTACCACGTGGTAAG | -0.07
141 | GTGATCACGTGAGGGA | 0.33
142 | ATTTGCACGTGAATAC | 0.36
143 | TGACGCACGTGAGGTT | 0.18
144 | AGTAGCACGTGAATGT | 0.17
145 | CTGGTCACGTGGTAGA | 0.06
146 | AAATGCACGTGGTATT | -0.1
